Experimental findings from PubChem BioAssay AID463173 (ICCB-Longwood Screening Facility, Harvard Medical School, 2010) are described below.

Out of some 52,000 compounds screened, about 4,300 (8.3%) were called active. Cut-off read from the data, not from the text of the source: active = survival mostly below about 52% (no sharp cut-off); inactive = mostly above about 56%. This is one part of the list.

The test deals with DeltatarO mutant. The experiment in a line: S. aureus survival, RN4220 and DeltatarO strains – OD600, teichoic acid synthesis inhibitors, primary screen (AID 463173). The following applies: S. aureus RN4220 wild type/DeltatarO growth, OD600, 18 h, active compounds read low, screened at 18.75 µg/mL (by protocol).
As to `COc1cccc(C2CC(=O)Nc3c2c(=O)[nH]c2nc4ccccc4n32)c1` (stereo not given), the survival is inactive: 183%.

For `COc1ccc(C(=O)NCC(c2ccc3c(c2)OCO3)N2CCN(c3ccccc3F)CC2)cc1` (stereo not given), the survival is inactive: 84%.

As for `O=C(COc1ccc([N+](=O)[O-])cc1)Nc1nc2c(s1)CCCC2`, the survival is inactive: 90%.

In the case of `O=C(NCC(c1ccc(Cl)cc1)N1CCOCC1)c1ccccc1F` (stereo not given), the survival is inactive: 88%.

As to `CCOc1ccc(-c2nnc(SCC(=O)Nc3cccc(OC)c3)nc2-c2ccc(OCC)cc2)cc1`, the survival was active: 0%.

`CCc1ccc(NC(=O)Cn2c(=O)n(CCCCC(=O)NCCc3ccc(Cl)cc3)c(=O)c3ccccc32)cc1`: the survival was inactive: 110%.

Turning to `O=c1[nH]c2ccc(NCc3ccc(-c4ccc(Br)cc4)o3)cc2[nH]1`, the survival was inactive: 57%.

On to `CCOC(=O)c1c(NC(=O)c2nc(S(C)(=O)=O)ncc2Cl)sc(C(C)=O)c1C`, for which the survival is active: 6%.

Consider `Cc1ccc2ncc(C(=O)Nc3ccc(OC(F)(F)F)cc3)c(=O)n2c1`, for which the survival is inactive: 88%.

Regarding `COc1cc(OC)cc(-c2nc(-c3ccc4c(c3)[nH]c(=O)n4C)no2)c1`, the survival is inactive: 94%.

On to `O=C1CCCc2cc(S(=O)(=O)N3CCCC(C(=O)NCc4ccc(Cl)cc4)C3)ccc2N1` (stereo not given), for which the survival is inactive: 86%.

As to `Cc1ccccc1-c1nnn(CC(=O)Nc2sc3c(c2C#N)CCC(C(C)(C)C)C3)n1` (stereo not given), the survival is inactive: 71%.

For the molecule `CCOc1ccc(-c2nc3c(c(SCC(=O)N4CCCCC4)n2)Cc2cccc(OC)c2O3)cc1`, the survival was inactive: 68%.

For `CCCCN1C(=O)C(O)(CC(=O)c2ccc(C(C)(C)C)cc2)c2ccccc21` (stereo not given), the survival is inactive: 28%.

Consider `O=C(Nc1ccccc1C(F)(F)F)n1ncc2cc(Cl)ccc21`, for which the survival was inactive: 104%.

Turning to `COc1ccc2cc3c(N)nn(C(=O)c4ccc(OC)c(OC)c4)c3nc2c1`, the survival was inactive: 86%.

Take `Cc1ccc2c(c1)nnn2C1CCN(C(=O)Nc2ccc(C#N)cc2)CC1`: the survival was inactive: 91%.

Take `O=C(Nc1nncs1)C1c2ccccc2Oc2ccccc21`: the survival was inactive: 108%.

For `CCOC(=O)c1[nH]c2ccccc2c1NC(=O)c1ccc(Br)cc1`, the survival is inactive: 95%.

As for `Cc1ccc2c(c1)N(CCCC(=O)Nc1cccc(C(F)(F)F)c1)C(=O)CO2`, the survival is inactive: 74%.

For `COc1cccc(CNC(=O)C2CCN(S(=O)(=O)c3ccc4c(c3)CCCN4C(C)=O)CC2)c1`, the survival is inactive: 113%.

`O=C(Cn1c(=O)nc(-c2ccccc2)c2cc(Cl)ccc21)Nc1ccc(F)c(Cl)c1`: the survival was inactive: 75%.

With `CCOc1cc(C#N)c(NC(=O)Cn2nnc(-c3ccc(C)cc3)n2)cc1OCC`, the survival is active: 42%.

Regarding `COc1cccc(CNC(=O)c2ccc(-n3c(C)cc4c3CCC(C)C4)cc2)c1` (stereo not given), the survival is inactive: 55%.

`CN(C(=O)c1cccc(C#N)c1)c1nnc(C2CCOC2)s1` (stereo not given): the survival was inactive: 100%.

As to `Cc1cccc(CSc2ncc(Cl)c(C(=O)Nc3nc4ccc(F)cc4s3)n2)c1`, the survival is active: 33%.

On to `CCOc1ccc(NC(=O)c2ncoc2-c2ccco2)cc1`, for which the survival was inactive: 89%.

As to `COc1cc(NC(=O)Cn2cc(C(=O)c3ccc(F)cc3)c(=O)c3ccc(C)nc32)cc(OC)c1`, the survival is inactive: 74%.

As for `Cc1ccc2nc3c(cc(C#N)c(=O)n3-c3nnc(SCc4ccccc4)s3)c(=O)n2c1`, the survival was inactive: 75%.

In the case of `CC1=C(c2ccc(Cl)cc2)S(=O)(=O)N=C1N1CCN(c2cccc(C)c2C)CC1`, the survival was inactive: 83%.

For `Cc1cccc(NC(=O)CSc2nc3ccc(NC(=O)c4ccccc4)cc3s2)c1`, the survival is inactive: 75%.

On to `COc1cccc(CN2C(=O)c3ccccc3Sc3ccc(C(=O)OCc4ccco4)cc32)c1`, for which the survival was inactive: 87%.

Regarding `CC(=O)Nc1ccc(I)cc1C(=O)O`, the survival is inactive: 95%.

For the molecule `Cc1ccc(CNc2nnc(C)c3nnn(Cc4ccc(F)cc4)c23)cc1`, the survival was inactive: 75%.

As for `COc1cc(NC(=O)Cn2c(=O)cc(C)c3c(C)nn(-c4ccc(C)cc4)c32)cc(OC)c1`, the survival is inactive: 97%.

For `CC(=O)N1c2ccc(S(=O)(=O)N3CCCCCC3)cc2CC1C(=O)NCc1cccc(C)c1` (stereo not given), the survival was inactive: 88%.

As for `CCOc1ccc(-c2cc3nc(C4CCN(C(=O)OC(C)(C)C)CC4)c(C(=O)Nc4cccc(CC)c4)cn3n2)cc1`, the survival was inactive: 64%.

For `Fc1ccc(NCc2ccccc2-c2nnc(-c3ccccc3Cl)o2)cc1`, the survival is inactive: 88%.

Regarding `O=C(NCCc1csc(-c2cccnc2)n1)c1cccc(Cl)c1`, the survival was inactive: 54%.

On to `CCOc1ccc(CC(=O)NCCc2sc3nc(-c4ccc(F)cc4)nn3c2C)cc1`, for which the survival was inactive: 79%.

Consider `Cc1ccc2ncc(C(=O)c3ccc(C)c(C)c3)c(S(=O)(=O)c3ccc(F)cc3)c2c1`, for which the survival was inactive: 81%.

With `Cc1ccccc1Cn1c(SCc2ccc(C(=O)NC3CCCCC3)cc2)nc2ccncc21`, the survival is inactive: 83%.

Turning to `COc1ccc(C)cc1C(=O)CCC(=O)O`, the survival was inactive: 103%.

`Cc1nc(SCc2cccc(Cl)c2)nc2c1CCCC2`: the survival is active: -2%.

In the case of `CC(C)N(Cc1nc(-c2ccc(Cl)cc2)no1)C(=O)c1ccc(C(C)(C)C)cc1`, the survival is active: -1%.

As for `Cc1cc(SCC(N)=O)nc2ccccc12`, the survival was inactive: 96%.

Regarding `CCc1ccc(NC(=O)CSc2nccn2-c2ccc(F)cc2)cc1`, the survival is inactive: 107%.

Take `COc1ccc(N2CC(NC(=O)/C=C\c3ccc4c(c3)OCO4)CC2=O)cc1OC` (stereo not given): the survival was inactive: 85%.

Regarding `CCSc1nc2n(n1)C(c1ccc(Cl)cc1Cl)C(C(=O)Nc1ccccc1C)=C(C)N2` (stereo not given), the survival is inactive: 67%.

Turning to `CC(C)(C)c1ccc(-c2nc(NC(=O)CSc3ncnc4sc5c(c34)CCCC5)ns2)cc1`, the survival is active: 57%.

As to `Cc1ccc(-n2ccn(CC(=O)NCCc3ccccc3)c(=O)c2=O)cc1C`, the survival is inactive: 56%.

With `CCCCOc1ccc(C(=O)N(Cc2ccc(N(C)C)cc2)Cc2ccco2)cc1`, the survival was inactive: 66%.

On to `Cc1ccc(-n2ncc3c(NCc4ccccc4)ncnc32)cc1Cl`, for which the survival was active: -4%.

As for `CCC(=O)C1=C(c2ccc(F)cc2)N(C(=O)CC)n2cnnc2S1`, the survival is inactive: 128%.

Regarding `Cc1ccccc1CN1C(=O)c2ccccc2S(=O)c2ccc(C(=O)NCc3ccc(Cl)cc3)cc21` (stereo not given), the survival was inactive: 83%.

As for `CCc1ccccc1NC(=O)CN(c1ccccc1)S(=O)(=O)c1ccsc1C(=O)OC`, the survival is inactive: 119%.

Consider `O=C(NCc1ccc2c(c1)OCO2)c1ccc2c(c1)N(Cc1ccccc1F)C(=O)c1ccccc1S2`, for which the survival was inactive: 88%.

`Cc1ccc2cccc(NC(=O)c3ccc(OC(C)C)cc3)c2n1`: the survival was inactive: 95%.

Regarding `CCc1ccccc1NC(=O)Cn1cc(S(=O)(=O)N2CCCC2)c(S(=O)(=O)N2CCCC2)c1`, the survival was inactive: 71%.

`O=C(c1ccco1)N(Cc1cccnc1)c1nc2c(F)cc(F)cc2s1`: the survival was inactive: 94%.

As to `COc1ccccc1NC(=O)CSc1nncn2c1cc1sccc12`, the survival was inactive: 92%.

As for `O=C(NCCNCc1ccco1)c1ccccc1`, the survival is inactive: 112%.

Turning to `C=CCn1c(=N)c(C(N)=O)cc2c(=O)n3ccccc3nc21`, the survival was inactive: 114%.

As to `CCOc1ccc(-c2nn(-c3ccccc3)cc2C2NC(=O)NC(C)=C2C(=O)OC(C)C)cc1` (stereo not given), the survival was inactive: 64%.

As to `CSc1nc(Nc2ccc(F)cc2)cc(-c2ccccc2)n1`, the survival was active: -5%.

For `CC(C)(C)OC(=O)N1CCC(c2c(C(=O)NCCN3CCc4ccccc4C3)cnn2-c2ccc(F)cc2)CC1`, the survival was inactive: 68%.

With `CCCCOc1ccc(C(=O)Nc2ccc(-c3cc4ccccc4oc3=O)cc2)cc1`, the survival was inactive: 81%.

As to `CC(C)c1ccc(OCC(=O)NCCS(=O)(=O)N2CCN(c3ccc(F)cc3)CC2)cc1`, the survival was inactive: 94%.

For `CN(CCC(N)=O)Cc1ccccc1`, the survival is inactive: 75%.

Turning to `CS(=O)(=O)N1CCSC1c1ccc(Cl)cc1Cl` (stereo not given), the survival is inactive: 109%.

Consider `COc1ccccc1C(=O)N1c2ncnn2C2(CCCCC2)[C@@H]2CCCC[C@@H]21`, for which the survival is inactive: 74%.

In the case of `COc1ccc(Cn2c(C(=O)O)c(CNC3CCCC3)c3ccc(OC)cc32)cc1`, the survival was inactive: 73%.

On to `CCn1c(=O)cc(SCC(=O)NCc2cccc(Cl)c2)c2ccccc21`, for which the survival was active: 38%.

On to `CCN1C(=O)c2ccccc2Sc2ccc(NC(=O)N3CCN(c4cc(C)ccc4C)CC3)cc21`, for which the survival is inactive: 52%.

`CCOC(=O)c1ccc(NC(=O)C(CC)Sc2nc3ccncc3[nH]2)cc1` (stereo not given): the survival was inactive: 128%.

Turning to `CCOC(=O)Cc1c(C)nc2cc(C)nn2c1C`, the survival was inactive: 98%.

`Cc1cc(C)nc(-n2nc(C)c3c2N(Cc2ccccc2)C(=O)CC3c2ccc(Cl)cc2)n1` (stereo not given): the survival was inactive: 60%.

With `Cc1ccc2c(=O)cc(C(=O)Nc3ccc(S(=O)(=O)Nc4onc(C)c4C)cc3)oc2c1C`, the survival is inactive: 79%.

As for `COC(=O)C1C(=O)NC(S)=C(C#N)C1c1ccccc1Cl` (stereo not given), the survival was inactive: 89%.

Regarding `O=C(CSc1oc(-c2ccccc2)nc1S(=O)(=O)c1ccc(Cl)cc1)c1ccccc1`, the survival was active: 44%.

`Cc1ccc(-n2cc(C(=O)Oc3ccc(F)cc3)c3ccccc3c2=O)cc1`: the survival was inactive: 81%.

As to `O=C(CC1C(=O)N(c2ccc(F)cc2)C(=O)N1Cc1ccc2c(c1)OCO2)Nc1ccc(Cl)cc1` (stereo not given), the survival is active: 43%.

`CC(C)c1ccc(NC(=O)c2cc(S(=O)(=O)N(C)C3CCCCC3)ccc2F)cc1`: the survival is inactive: 55%.

In the case of `CCCCn1cnc2cc(NCc3ccc(OCC)cc3)ccc21`, the survival was active: 11%.

Take `CCOc1ccc(NC(=O)c2cc(S(=O)(=O)N3CCc4ccccc43)ccc2F)cc1`: the survival was inactive: 88%.

As for `Cc1ccc(S(=O)(=O)N(CCC#N)Cc2ccccc2)cc1`, the survival is inactive: 82%.

Regarding `Cc1oc(C(=O)O)cc1CN1CCCC1`, the survival is inactive: 100%.

As for `CCN(C(=O)Cn1c(=O)n(-c2ccccc2)c(=O)c2ccc(C(=O)NCc3ccc4c(c3)OCO4)cc21)c1cccc(C)c1`, the survival was inactive: 84%.

Turning to `O=C(O)C1CCN(S(=O)(=O)c2cccc3nsnc23)CC1`, the survival was inactive: 87%.

`Cc1c(Cl)cccc1NS(=O)(=O)c1ccc(-c2cnc(C3CC3)o2)cc1`: the survival is inactive: 124%.
